According to article PMC4336329 (PLoS ONE, 2015):
Hit rate of the full screen: of about 310,000 compounds, about 2,200 (0.71%) showed an effect of 50% or more. Effects have a minus sign here. This is one part of the list.

What follows are compounds tested against human ether-à-go-go-related gene (hERG) potassium channel (human, UniProt Q12809) (assay: primary screen, population patch clamp on CHO cells stably expressing hERG).
Sequence of human ether-à-go-go-related gene (hERG) potassium channel (Q12809 whole entry, looked up): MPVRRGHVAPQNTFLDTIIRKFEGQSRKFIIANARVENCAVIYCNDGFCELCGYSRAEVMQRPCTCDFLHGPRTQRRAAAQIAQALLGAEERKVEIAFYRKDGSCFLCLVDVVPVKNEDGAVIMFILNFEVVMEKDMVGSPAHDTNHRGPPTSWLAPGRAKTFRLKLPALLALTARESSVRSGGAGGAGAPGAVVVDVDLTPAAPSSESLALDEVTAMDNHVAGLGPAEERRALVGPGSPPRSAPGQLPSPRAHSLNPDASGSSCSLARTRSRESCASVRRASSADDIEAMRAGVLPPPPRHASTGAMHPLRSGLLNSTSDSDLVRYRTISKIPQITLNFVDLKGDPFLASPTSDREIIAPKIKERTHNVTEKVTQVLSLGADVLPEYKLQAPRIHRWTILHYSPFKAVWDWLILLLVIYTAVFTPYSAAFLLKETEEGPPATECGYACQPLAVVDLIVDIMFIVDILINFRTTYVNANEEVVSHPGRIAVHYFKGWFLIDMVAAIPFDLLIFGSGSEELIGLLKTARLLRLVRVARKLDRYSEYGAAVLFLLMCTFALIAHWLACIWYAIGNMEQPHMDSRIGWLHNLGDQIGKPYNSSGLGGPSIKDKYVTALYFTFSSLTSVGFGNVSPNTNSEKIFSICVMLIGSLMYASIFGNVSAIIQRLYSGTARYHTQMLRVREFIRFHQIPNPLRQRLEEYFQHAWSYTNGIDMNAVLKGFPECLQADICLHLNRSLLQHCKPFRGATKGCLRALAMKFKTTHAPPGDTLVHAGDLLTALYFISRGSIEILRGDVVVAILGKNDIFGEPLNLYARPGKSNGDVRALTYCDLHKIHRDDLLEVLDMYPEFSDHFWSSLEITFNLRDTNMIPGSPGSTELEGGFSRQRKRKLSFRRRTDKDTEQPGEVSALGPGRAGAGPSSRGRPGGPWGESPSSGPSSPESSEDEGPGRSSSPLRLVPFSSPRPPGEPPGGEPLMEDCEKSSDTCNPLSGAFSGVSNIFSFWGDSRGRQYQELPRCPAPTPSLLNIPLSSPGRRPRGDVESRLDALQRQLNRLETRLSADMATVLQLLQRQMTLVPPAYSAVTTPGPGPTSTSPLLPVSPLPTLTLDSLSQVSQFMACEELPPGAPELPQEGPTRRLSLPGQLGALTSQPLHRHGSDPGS

SMILES | hERG current change (%, negative = inhibition) at 1uM [%]
Cc1ccc(NC(=O)c2ccco2)c([N+](=O)[O-])c1 | 12.9
COC(=O)c1ccc(-c2sc3nc(N4CCOCC4)c4c(c3c2N)CC(C)(C)OC4)o1 | 0.682
Cc1ccc(NC(=O)C2CCCN(S(=O)(=O)c3ccc(-n4cnnn4)cc3)C2)cc1 (stereo not drawn) | -8.28
Cc1ccc2nc(NC(=O)CSc3nnc(C)c(=O)n3N)sc2c1 | 10.2
CN1CCN(CCP(=O)(c2ccccc2)c2ccccc2)CC1 | 13.3
CCCCCC(=O)N/N=C(\C)c1ccc(NC(=O)c2ccco2)cc1 | 8.99
C/C(=N\NC(=O)C1CC1)c1ccccc1O | 2.12
Cc1ccc(-n2c(SCC(=O)Nc3ccc4c5c(cccc35)CC4)nc(O)cc2=O)cc1 | 8.12
Cc1ccc(S(=O)(=O)Nc2ccc(-n3cnnn3)cc2)cc1 | 5.36
O=C1CCCc2c1[nH]c1ccc(Br)cc21 | 17.6
CCN=c1scc(C)n1/N=C/c1ccsc1 | -5.98
O=C(CC1C(=O)NCCN1Cc1ccc(-c2ccccc2)cc1)NCC1CCOCC1 (stereo not drawn) | 3.45
Cc1ccc(C)c(NC(=O)c2ccccc2NS(=O)(=O)c2cc([N+](=O)[O-])ccc2C)c1 | -0.824
CCc1nnc(NC(=O)C2CCCN2C(=O)NC2CCCCC2)s1 (stereo not drawn) | 12.3
CNc1nc(-c2ccc3c(c2)CCN3C(=O)CC(C)(C)C)c(C)s1 | 20.1
Cc1cccc(-n2c(Cc3ccccc3)n[nH]c2=S)c1 | -0.101
Cc1cc(C)c(S(=O)(=O)Nc2ccc(OCC(=O)O)cc2)c(C)c1 | 14.7
Cc1oc(-c2ccc(Cl)cc2)nc1CN1CCC(C(=O)NCc2ccco2)CC1 | -58.3
O=C(NCCCN1CCCC1)Nc1cccc2ccccc12 | -4.77
Cc1[nH]n(-c2ccc(Cl)c(Cl)c2)c(=O)c1CCO | 12.7
CC1(C)COC(c2coc3ccccc3c2=O)OC1 | 5.93
COc1ccc(N2CCN(C(=O)c3oc4c(c3C)C(=O)CCC4)CC2)cc1 | 13.8
Cc1ccc(C(=O)NNC(=O)c2ccncc2)cc1S(=O)(=O)N1CCOCC1 | 8.27

SMILES | hERG current change (%, negative = inhibition) at 1uM [%]
OC(CNCc1ccccc1)c1ccccc1 (stereo not drawn) | 10.9
C=CCN1C(=O)C2(C(C(=O)OCC)=C(N)Oc3ccccc32)C2=C1CCCC2=O (stereo not drawn) | 3.9
COc1ccc(CN2CCc3ccccc3C2)cc1Br | 13.9
COc1ccc(C2c3c(oc4ccccc4c3=O)C(=O)N2CC2CCCO2)cc1 (stereo not drawn) | 6.25
COc1ccc(Nc2cnn(-c3nc4ccccc4s3)c(=O)c2Cl)cc1 | 3.84
CC(C)CCN(C)C1CCN(S(=O)(=O)c2ccc(F)cc2)CC1.Cl | -23
Cc1ccc(NC(=O)CSc2nnc([C@@H]3CCCN3C(=O)OC(C)(C)C)o2)c(C)c1 | 14.1
COc1ccc(S(=O)(=O)N(C)C)cc1NC(=O)CN1CCN(C(=O)C2CC2)CC1 | 11.8
CCn1c(CNC(=O)Cc2ccc(OC)cc2)nnc1SCCOc1ccccc1 | -0.161
CC1CCCCC1NC(=O)CCC(=O)N1CCOc2ccc(Cl)cc21 (stereo not drawn) | 0.944
COc1cc(NC(=S)N2CCC(C(N)=O)CC2)cc(OC)c1 | -2.75
COCc1nnc(NC(=O)CSc2ccccc2)s1 | -0.93
CCOC(=O)[C@H]1[C@H]2COc3ccc(Cl)cc3[C@@H]2N2C(=O)CN(Cc3ccc(F)cc3)C(=O)[C@@]12C | 17.6
Nc1c(N(CCC2=CCCCC2)C(=O)C2CC2)c(=O)[nH]c(=O)n1Cc1ccccc1 | 5.13
Cc1ccc(CC(=O)N2CCN(S(=O)(=O)c3ccccc3)CC2)cc1C | -3.83
CCN(CC)S(=O)(=O)c1cc(NC(=O)CCNC(=O)c2ccco2)ccc1C | 8.26
COc1ccccc1N(C(=O)Cn1nnc2ccccc21)C(C(=O)NCc1ccco1)c1ccc(C)o1 (stereo not drawn) | 8.67
CCOC(=O)NC(=S)c1ccc[nH]1 | 7.62
CCOC(=O)C1CCCN(C(=O)CCCn2nc(C)n3c(cc4sccc43)c2=O)C1 (stereo not drawn) | -10.4
Cc1ccnc(NS(=O)(=O)c2ccc(N3C(=O)C4CCCCC4C3=O)cc2)n1 (stereo not drawn) | 18.9
Cc1cc(C)n(C(=O)c2cccc(S(=O)(=O)N3CCCCC3)c2)n1 | 9.1
CSc1nc(C)cc(SCC(=O)Nc2ccccc2)n1 | -11.2
